Laboratory results: patent US20090298769A1 (CLEVELAND CLINIC FOUNDATION, published 2009)

Key:
[1] = target: T1, αvβ3 integrin on human endothelial cells (HUVEC; vessels of human prostate tissue) (human, UniProt P06756 31-1048; P05106 27-788); assay: co-immunoprecipitation (anti-β3 IP, anti-Fyn blot), HUVEC with or without VEGF
T1 construct: whole, on cells; Endogenous receptor; also called vitronectin receptor

[2] = target: T2, VEGFR-2 of human endothelial cells (HUVEC) (human, UniProt P35968); assay: co-immunoprecipitation (anti-VEGFR-2 IP, anti-Fyn blot), HUVEC with or without VEGF
T2 construct: whole, on cells; Endogenous, detected in cell lysates or by staining; also called VEGF receptor-2
T2 sequence (P35968 20-1356): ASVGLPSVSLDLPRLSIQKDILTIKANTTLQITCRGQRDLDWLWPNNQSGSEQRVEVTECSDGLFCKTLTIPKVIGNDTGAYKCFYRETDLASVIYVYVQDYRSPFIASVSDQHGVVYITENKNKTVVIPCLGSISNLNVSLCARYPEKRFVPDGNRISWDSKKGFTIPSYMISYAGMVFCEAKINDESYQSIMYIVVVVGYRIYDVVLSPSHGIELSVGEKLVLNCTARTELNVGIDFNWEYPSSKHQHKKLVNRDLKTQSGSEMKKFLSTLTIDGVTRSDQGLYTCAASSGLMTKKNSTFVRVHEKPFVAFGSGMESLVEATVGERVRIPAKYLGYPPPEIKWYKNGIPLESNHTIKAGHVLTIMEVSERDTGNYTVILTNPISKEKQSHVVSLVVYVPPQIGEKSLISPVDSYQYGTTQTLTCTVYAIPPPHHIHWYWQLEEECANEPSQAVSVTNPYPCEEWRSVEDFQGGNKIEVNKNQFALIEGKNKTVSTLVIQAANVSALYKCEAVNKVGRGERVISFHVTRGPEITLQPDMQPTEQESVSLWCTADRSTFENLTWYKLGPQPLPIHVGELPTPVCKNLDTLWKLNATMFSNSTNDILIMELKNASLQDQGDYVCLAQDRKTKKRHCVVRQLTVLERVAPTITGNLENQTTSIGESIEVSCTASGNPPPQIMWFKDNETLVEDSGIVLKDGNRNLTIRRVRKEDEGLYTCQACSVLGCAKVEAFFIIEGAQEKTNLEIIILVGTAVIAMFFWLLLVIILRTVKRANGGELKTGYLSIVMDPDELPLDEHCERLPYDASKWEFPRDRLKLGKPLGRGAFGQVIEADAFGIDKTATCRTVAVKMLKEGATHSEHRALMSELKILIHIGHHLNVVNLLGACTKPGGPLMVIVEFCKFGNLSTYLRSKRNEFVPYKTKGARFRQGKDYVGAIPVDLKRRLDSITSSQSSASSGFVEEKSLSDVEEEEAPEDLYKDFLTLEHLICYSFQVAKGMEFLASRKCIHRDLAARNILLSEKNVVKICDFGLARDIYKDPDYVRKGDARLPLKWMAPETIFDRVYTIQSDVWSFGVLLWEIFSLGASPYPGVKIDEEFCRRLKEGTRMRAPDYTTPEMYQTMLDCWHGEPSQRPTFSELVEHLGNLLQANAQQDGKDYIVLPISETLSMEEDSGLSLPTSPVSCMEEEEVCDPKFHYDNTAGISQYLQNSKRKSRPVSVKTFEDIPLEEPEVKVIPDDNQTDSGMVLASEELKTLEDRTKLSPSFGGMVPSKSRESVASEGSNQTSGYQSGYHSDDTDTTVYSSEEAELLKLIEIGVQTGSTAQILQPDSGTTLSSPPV

Chain of UniProt P06756 (P06756 31-1048, chain 1 of 2): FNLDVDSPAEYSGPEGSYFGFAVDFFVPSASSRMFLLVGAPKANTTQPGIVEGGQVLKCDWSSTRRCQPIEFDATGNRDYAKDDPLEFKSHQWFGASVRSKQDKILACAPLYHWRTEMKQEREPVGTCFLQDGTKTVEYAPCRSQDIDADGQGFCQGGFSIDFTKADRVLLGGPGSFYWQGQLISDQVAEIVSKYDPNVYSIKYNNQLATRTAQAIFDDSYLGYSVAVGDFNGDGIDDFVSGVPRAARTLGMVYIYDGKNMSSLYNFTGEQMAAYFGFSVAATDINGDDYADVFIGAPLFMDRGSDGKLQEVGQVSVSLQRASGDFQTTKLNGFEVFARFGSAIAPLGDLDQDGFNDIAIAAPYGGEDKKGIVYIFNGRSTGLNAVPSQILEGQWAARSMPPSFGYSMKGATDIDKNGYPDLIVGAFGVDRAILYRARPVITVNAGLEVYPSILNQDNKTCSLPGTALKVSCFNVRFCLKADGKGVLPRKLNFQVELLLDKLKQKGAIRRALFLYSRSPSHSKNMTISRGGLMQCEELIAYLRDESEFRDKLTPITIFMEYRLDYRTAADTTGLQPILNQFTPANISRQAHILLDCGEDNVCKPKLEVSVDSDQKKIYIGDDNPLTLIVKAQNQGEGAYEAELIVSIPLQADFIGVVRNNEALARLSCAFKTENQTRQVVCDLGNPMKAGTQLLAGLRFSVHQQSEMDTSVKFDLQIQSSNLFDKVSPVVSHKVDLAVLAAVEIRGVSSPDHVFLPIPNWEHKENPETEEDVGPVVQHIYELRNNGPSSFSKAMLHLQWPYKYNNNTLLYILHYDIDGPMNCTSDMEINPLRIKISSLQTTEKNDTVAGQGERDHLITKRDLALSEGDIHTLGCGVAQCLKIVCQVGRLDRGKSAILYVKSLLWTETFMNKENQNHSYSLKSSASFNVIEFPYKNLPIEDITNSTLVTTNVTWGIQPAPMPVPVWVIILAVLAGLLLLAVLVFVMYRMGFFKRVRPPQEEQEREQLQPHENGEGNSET
Chain of UniProt P06756 (P05106 27-788, chain 2 of 2, further chain): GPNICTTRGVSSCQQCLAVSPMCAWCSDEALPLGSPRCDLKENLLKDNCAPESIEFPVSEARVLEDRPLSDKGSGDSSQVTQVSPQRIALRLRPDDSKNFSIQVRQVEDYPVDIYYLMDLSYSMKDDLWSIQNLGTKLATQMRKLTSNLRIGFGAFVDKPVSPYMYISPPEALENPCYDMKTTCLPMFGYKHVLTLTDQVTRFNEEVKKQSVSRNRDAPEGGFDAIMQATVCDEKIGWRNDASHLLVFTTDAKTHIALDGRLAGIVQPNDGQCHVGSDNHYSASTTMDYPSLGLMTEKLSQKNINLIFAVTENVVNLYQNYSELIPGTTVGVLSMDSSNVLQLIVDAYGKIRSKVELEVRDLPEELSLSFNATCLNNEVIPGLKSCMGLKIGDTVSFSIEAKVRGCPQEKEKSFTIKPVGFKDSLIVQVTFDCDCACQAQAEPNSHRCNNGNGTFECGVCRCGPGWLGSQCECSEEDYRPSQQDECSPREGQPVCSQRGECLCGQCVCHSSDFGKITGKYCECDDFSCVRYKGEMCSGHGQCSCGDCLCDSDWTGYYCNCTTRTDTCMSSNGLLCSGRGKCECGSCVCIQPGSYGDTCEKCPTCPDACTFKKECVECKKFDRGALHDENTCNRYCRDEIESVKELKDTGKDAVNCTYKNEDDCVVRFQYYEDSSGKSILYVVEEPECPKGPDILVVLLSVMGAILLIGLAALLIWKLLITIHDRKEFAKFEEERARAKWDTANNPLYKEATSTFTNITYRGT

- binding result [1]: no binding
- binding result [2]: no binding
B1: Fyn of HUVEC (endogenous) (enzyme)
chain: not shown
